The values below come from PubChem BioAssay AID1508623 (National Center for Advancing Translational Sciences (NCATS), 2021).

Screen size: about 48,000 compounds; about 450 (0.94%) were called active. Roughly 19% stayed inconclusive and do not appear here. Calls follow the shape of the dose curve; as a rule, active = well fitted inhibition curve with a large enough effect; inconclusive = small, poorly fitted or top-dose-only effect; inactive = no such curve, though single readings can be large or run the other way. This is one part of the list.
Potency is read from the fitted curve at half-maximal effect.

The test can be described thus: Primary qHTS for Identification of Small Molecule Inhibitors of Huntingtin Promoter Activity. Also: nearly all actives have a fitted effect of over 50% in size. To be noted: HEK293 HTT promoter firefly luciferase reporter (activity 0% = vehicle and -100% = no light), 24 h; series mostly up to 57.5 µM; activity change, negative = inhibition: at the top concentration. A digest of the protocol: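 Firefly luciferase readout (Dual-Glo, 10 min RT) after 24 h, 37 °C compound exposure (final up to 57.5 uM) of HEK293 reporter cells cultured 24 h beforehand; PTC124 at 50 uM final as control inhibitor; activity scaled vehicle 0%, zero RLU -100%.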
A general note: qHTS replaces the single test concentration by a dilution series.
As to `O=C(OCC1CCCO1)c1ccc2c(c1)N(Cc1ccc(F)cc1)C(=O)c1ccccc1S2(=O)=O` (stereo unspecified), the “activity change, negative = inhibition” value is inactive: -5.91%. The same measure, in the same setting: to `Cc1ccc(Cl)cc1NC(=O)N1CCC(CN2CCc3ccccc3C2)CC1` belongs inactive: -28.4%. As for `CCC(=O)NCc1nc2ccccc2n1Cc1ccccc1`, the “activity change, negative = inhibition” value was inactive: -7.39%. `Cn1cccc1-c1cc2n(n1)CCC(=O)N2CC(=O)Nc1ccc(F)cc1Cl`: the “activity change, negative = inhibition” value was inactive: 0%.

As for `Cc1ccc(S(=O)(=O)N2CCCc3cc(NC(=O)c4cccc(Cl)c4)ccc32)cc1`, the “activity change, negative = inhibition” value is inactive: -25.1%.

For `CCOC(=O)c1c(C)[nH]c(C)c1S(=O)(=O)N1CCC(C(=O)NCc2ccc(OC)cc2)CC1`, the “activity change, negative = inhibition” value is inactive: -4.44%. For `Cc1c(NC(=O)Cc2ccccc2)cccc1-c1nc2cccnc2s1`, the “activity change, negative = inhibition” value was inactive: -7.85%.

`CCOc1ccc(NC(=O)c2cc3nc(-c4ccc(OC)cc4)cc(C(F)(F)F)n3n2)cc1`: the “activity change, negative = inhibition” value was inactive: -8.16%. As for `COC(=O)c1ccc2c(=O)n(CCCCCC(=O)N3CCN(c4cccc(C)c4C)CC3)c(=O)[nH]c2c1`, the “activity change, negative = inhibition” value is inactive: -26.8%.

As for `COCCCNc1nc2c(-c3cccc(Br)c3)nnn2c2ccccc12`, the “activity change, negative = inhibition” value was inactive: 3.74%. On the same count and under the same terms, the same measure for `CCS(=O)(=O)N1CCc2cc(C(=O)NCc3ccc(C)cc3)ccc21`: inactive: -14.9%; for `O=C(CSc1nc2c([nH]c3ccccc32)c(=O)n1-c1ccc(F)cc1)Nc1ccc2c(c1)OCCO2`: inactive: -23.6%. Still for that read-out and setting: to `Cc1cccc(-c2cc(-c3ccccc3)nc(SCC(=O)Nc3ccccc3)c2C#N)c1` belongs inactive: -2.62%; to `Cc1ccc(S(=O)(=O)N(CC(O)Cn2c3ccccc3c3ccccc32)c2cccc(C(=O)NCCO)c2)cc1` (stereo unspecified), inactive: -24.6%; to `CCC(Cn1nnc2ccccc2c1=O)NC(=O)Nc1ccccc1Cl` (stereo unspecified), inactive: -14.5%. With `CN1CCN(CC(=O)N2c3ccccc3C(=O)Nc3cccnc32)CC1`, the activity change, negative = inhibition is inactive: -2.71% [at 6.01 µM]. Still for that read-out and setting: to `Cc1c(C(=O)NCc2ccc(Cl)cc2)sc2nc3n(c(=O)c12)CCC3` belongs inactive: -3.71%; to `COCCNC(=O)CN1C(=O)CCn2nc(-c3cn(C)c4ccccc34)cc21`, inactive: -17.4%; to `COc1ccc(-c2nc3n(n2)C(c2ccccc2)C(C(=O)Nc2cccnc2)=C(C)N3)cc1` (stereo unspecified), inactive: -25.7%. In the case of `CCOC(=O)N1CCN(CCC(=O)Nc2cccc(F)c2)CC1`, the activity change, negative = inhibition was inactive: -11.4% [at 11.5 µM]. As to `Cc1c(C(=O)O)oc2c1-c1nn(Cc3ccccc3Cl)cc1CC2`, the “activity change, negative = inhibition” value is inactive: -28%.

Regarding `COc1cc([C@@H]2Nc3c(F)cccc3[C@@H]3C=CC[C@@H]32)cc(Br)c1OC`, the “activity change, negative = inhibition” value is inactive: -23%. Same read-out and setting: the same measure for `CC(=O)N(CC(O)CO)c1c(I)c(C(=O)NCCO)c(I)c(C(=O)NCC(O)CO)c1I` (stereo unspecified): inactive: 5.02%; for `COc1ccc2c(Sc3ccc(C)cc3)c(C(=O)NC(C)c3ccccc3)[nH]c2c1` (stereo unspecified): inactive: -18.9%; for `Cc1ccc(Sc2ccc(N3CCC(C(=O)Nc4ccc(Cl)cc4)CC3)nn2)cc1`: inactive: -9.77%.

For the molecule `CCc1ccc(C(=O)c2cn(CC(=O)NCc3ccc(C)cc3)c3nc(C)ccc3c2=O)cc1`, the “activity change, negative = inhibition” value was inactive: -4.17%. Same read-out and setting: the same measure for `CCOC(=O)CCNC(=O)N1CCN(S(=O)(=O)c2ccc3c(ccn3C)c2)CC1`: inactive: -27.2%; for `Cc1ccc(N2C(=O)C(CC(=O)Nc3ccc(F)cc3)N(Cc3ccc4c(c3)OCO4)C2=O)cc1` (stereo unspecified): inactive: -17.9%. `Cc1ccc(CNC(=O)c2ccc3c(c2)NC(=O)C(CS(=O)(=O)Cc2cccc(F)c2)N3)cc1` (stereo unspecified): the “activity change, negative = inhibition” value was inactive: -16.5%. With `CC(=O)c1ccc(NC(=O)c2cc3c(=O)oc4ccc(C)cc4c3s2)cc1`, the “activity change, negative = inhibition” value is inactive: -13.1%. The same measure, in the same setting: the same measure for `O=C(CSCn1nnc2c(=O)[nH]c(Cc3ccc(F)cc3)nc21)Nc1ccccc1`: inactive: 14.5%; for `Cc1cccc(N2C(=O)C(CC(=O)Nc3cccc(F)c3)N(CCc3ccncc3)C2=O)c1` (stereo unspecified): inactive: -9.96%. Still for that read-out and setting: to `COc1ccc(NC(=O)C2=CC(c3ccc4c(c3)OCO4)=NS(=O)(=O)N2C)cc1OC` belongs inactive: -33.1%; to `O=S(=O)(c1ccc(Cl)cc1)c1nc(-c2ccccc2F)oc1NCc1ccccc1`, inactive: -5.25%. As to `COc1ccc(OC)c(CC2C(=O)Nc3ccc(Br)cc32)c1` (stereo unspecified), the Potency is active: 20 µM. As for `COC(=O)c1cc2sccc2n1Cc1ccc(F)cc1Cl`, the “activity change, negative = inhibition” value is inactive: -18.7%. On the same count and under the same terms, the same measure for `Cc1cc(N2CCN(c3cc(Cl)ccc3C)CC2)n2nc(-c3ccccc3)nc2n1`: inactive: -3.63%. On the same count and under the same terms, to `C[C@H](CCC(=O)O)[C@H]1CC[C@H]2[C@@H]3[C@H](O)C[C@@H]4C[C@H](O)CC[C@]4(C)[C@@H]3CC[C@]12C` belongs inactive: -3.87%; to `CCCCNC(=O)C1CCC(Cn2c(=O)c3sccc3n(CC(=O)Nc3ccccc3)c2=O)CC1` (stereo unspecified), inactive: -5.89%; to `O=C(COc1ccc(F)cc1)Nc1ccc2nc(SCCOc3ccccc3)sc2c1`, inactive: -13.8%. On the same count and under the same terms, to `COCCn1c(=N)c(C(=O)NC2CCCC2)cc2c(=O)n3cc(C)ccc3nc21` belongs inactive: -3.21%. With `O=C(Nc1ccccc1C(=O)OCc1cc(=O)n2ccsc2n1)c1ccccc1Cl`, the “activity change, negative = inhibition” value was inactive: 5.62%.

For the molecule `CCN(CC)CCNC(=O)c1cn(CC)c2ccc(S(=O)(=O)N3CCc4ccccc4C3)cc2c1=O`, the “activity change, negative = inhibition” value is inactive: -3.52%.

On to `CCC(=O)N1CCc2cc(Br)cc(S(=O)(=O)N3CCN(c4cc(C)ccc4C)CC3)c21`, for which the “activity change, negative = inhibition” value was inactive: -3.07%. Still for that read-out and setting: the same measure for `COc1cc(-c2cc3n(C)c(C)c(CCC(=O)NC4CCCCC4)c(=O)n3n2)cc(OC)c1OC`: inactive: -0.992%; for `CCOC(=O)c1cc(-c2ccc(C)cc2)n(CCC(=O)NCCc2ccc(C)cc2)c1C`: inactive: -22.9%.
